Our source for the binding signal values is publication PMC12136788.

The other results are listed elsewhere or left out.

T1: UNK ZnF1-6 (called full-length) (human, UniProt Q9C0B0 30-357)
T1 sequence: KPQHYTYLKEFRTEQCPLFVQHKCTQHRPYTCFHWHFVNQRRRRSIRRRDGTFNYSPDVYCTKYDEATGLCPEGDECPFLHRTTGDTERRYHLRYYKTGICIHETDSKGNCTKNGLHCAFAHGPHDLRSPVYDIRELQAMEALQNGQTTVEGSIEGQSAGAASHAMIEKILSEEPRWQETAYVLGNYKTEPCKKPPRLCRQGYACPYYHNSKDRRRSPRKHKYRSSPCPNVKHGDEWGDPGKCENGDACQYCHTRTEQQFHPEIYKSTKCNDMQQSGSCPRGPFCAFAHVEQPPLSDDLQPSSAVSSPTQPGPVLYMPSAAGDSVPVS

B1: chr7:66152395:66152486:+|3pUTR|ENSG00000241258|msi1_unk|total|mutant (ssRNA)
RNA: GGGAGUUCUACAGUCCGACGAUCCGUUGAGAGGAUUGUUUAUUUGAUUUUUAUCCUCAUCCCAGCAGGCCUGGCUUUGUGGUCCGUUGGGUACAUCACAAAAAUAAGUUAAAAAGAAAUAUUUGUGCCUUGGGGAGAAGAAACCAACAGAGGAUUGAGCAUCA
B2: chr10:126014591:126014692:-|3pUTR|ENSG00000148848|msi1|FALSE|unique (ssRNA)
RNA: GGGAGUUCUACAGUCCGACGAUCAAAGGUUUGUCUCCUGAAAUUUUUUAAGUUUGUUUUCCUGACACAUGUAAUCAGAUGUGUAGCAACCGAGGGAAACGAAGCCUAACAUUCUCCAUUGUGGAAAUACACACAGGAGGUUACCAACAGAGGAUUGAGCAUCA
B3: chr5:133955728:133955829:-|3pUTR|ENSG00000113583|msi1|total|mutant (ssRNA)
RNA: GGGAGUUCUACAGUCCGACGAUCUCAAUAUGUAAAUAUGUGAUUUGAACCAUGGUUGACUUACAAGUGUCACUACAGCUUUUCCGAAAACACCGCCCUAAUAUAUGUUAAGCAGGACCCGGGUGAGCCAGUGGGCUUGCGCUUCAACAGAGGAUUGAGCAUCA
B4: chr15:52547342:52547511:-|3pUTR|ENSG00000128989|msi1|FALSE|unique (ssRNA)
RNA: GGGAGUUCUACAGUCCGACGAUCAACAUAUUUAAUAUUAUGCCCUUGGAUCUGUUACUGCAUCACUAGCACUUGUGAUGCAAUAGAACACUUCGCCUGUACUGAAAGGGCCAAGAGUAAAUGCCUUGUUUUGUUUUUUUGUUUCAACAGAGGAUUGAGCAUCA
B5: chr16:30351896:30351997:-|3pUTR|ENSG00000169217|unk|total|mutant (ssRNA)
RNA: GGGAGUUCUACAGUCCGACGAUCCUGGCACCCUCCACCUCCACGCCCCACCAGCAUUGCCUUACGCCUCCCUUGCCCCACGUCCGAUGGUUUCUUCCGGUUUUGCACUCUGGCUGCCCCUUGGAGUCUCCUGGGGAGCUGUAACAACAGAGGAUUGAGCAUCA
B6: chr15:63774837:63774950:-|CDS|ENSG00000103657|unk|FALSE|unique (ssRNA)
RNA: GGGAGUUCUACAGUCCGACGAUCGUAACAACAUUUCUUAAAGGAGUCACUAUUCCUAAUUCUGGGGCAGACACUUUAGGUCGUAGAUUAGCUUCUGAGUUGCUGCUUGGUUUGGCAGCUCAACGAGGCUCAUUGCGAUAUCUUCAACAGAGGAUUGAGCAUCA
B7: ENSG00000107863:be:win_5151|CDS|ENSG00000107863|bound_else_gene|NA|bound_elsewhere_windowed (ssRNA)
RNA: GGGAGUUCUACAGUCCGACGAUCUCUAGGAGAUGCCAAGAAUGAGAAAGAAGCACCUUCGUUAACUAAAGUGUUUGAUGUUAUGAAAAAAGGAAAGUCAACUGGGAGUUUACUGACACCCACCAGAGGCGAAUCCGAAAAACACAACAGAGGAUUGAGCAUCA
B8: chr2:210612109:210612263:+|CDS|ENSG00000021826|unk|FALSE|unique (ssRNA)
RNA: GGGAGUUCUACAGUCCGACGAUCUAUUGGUCGUACCUUUGAGGAGAGUUUCCAGAAAGCUUUACGGAUGUGCCACCCAUCUAUAGAAGGUUUCACUCCCCGUCUCCCAAUGAACAAAGAAUGGCCAUCUAAUUUAGAUCUUAGCAACAGAGGAUUGAGCAUCA
B9: chrX:11121696:11121802:+|CDS|ENSG00000004961|unk|FALSE|unique (ssRNA)
RNA: GGGAGUUCUACAGUCCGACGAUCUGAUGGUGGUGAAGUCAACAAGGACUACCAGUUCACCAUCCUGGACGUCCGUCCUGCCUUAGAUUCACUUUCGGCAGUAUGGGACAGAAUGAAAGUCGCUUGGUGGCGUUGGACCUCGUACAACAGAGGAUUGAGCAUCA
B10: chr2:152649661:152649762:+|3pUTR|ENSG00000157827|msi1|FALSE|unique (ssRNA)
RNA: GGGAGUUCUACAGUCCGACGAUCCUACAAAUAGACAACGUUGGCAUGUUCUUUUCUGUUUGUCUAUUAAUGGGCCUGCUUCUUAGCAAUAUUAGAAUGUUUUAUAAAAGCAAUUCAUGUUACUUUUCUGGUCUUUUCAUGGCACAACAGAGGAUUGAGCAUCA
B11: chr20:25296659:25296760:+|3pUTR|ENSG00000100994|msi1|FALSE|unique (ssRNA)
RNA: GGGAGUUCUACAGUCCGACGAUCUGGGGGUCAGGGUGGUUUUGAGAGAGCAGGGUAAGGAAGGAAUGUGCUAGAAGUGCUCCUAGUUUCUUGUAAAGGAAGCCAGAGUUGACAGUACAAAGGGUCGUGGCCAGCCCUGCAGCUCAACAGAGGAUUGAGCAUCA
B12: chr1:162523450:162523604:+|3pUTR|ENSG00000152332|msi1|total|mutant (ssRNA)
RNA: GGGAGUUCUACAGUCCGACGAUCAGACUAAGUUGUGCCAGAUGUAAAUCAACCCCUCUUUCCGUUUACUUCCGACUUUGUAUCCGCUCAUCUUUUUUGCCGUAAAUCUACCGUUUUAAGGUUUCUCAAGAUGUGGCUCUACCUCAACAGAGGAUUGAGCAUCA
B13: chr21:36753219:36753320:-|3pUTR|ENSG00000159267|msi1|total|mutant (ssRNA)
RNA: GGGAGUUCUACAGUCCGACGAUCGUUUCAGAUUUACUCUGAAAUGUGGAGCAUUCCUGCAAGACUGUGCAGCUCACGGAAUACCGAAGACAUGGCAUUUUACUCAGAAGUCAUAAGUUUUUGCCCCCCUCAUUUACCUCGUAUCAACAGAGGAUUGAGCAUCA
B14: chr1:46929176:46930310:-|three_prime_utr|ENSG00000187048|control|control|control (ssRNA)
RNA: GGGAGUUCUACAGUCCGACGAUCAAGGCUACCCUGACGCACCAUAAUCUAAGCCCGGGGCAUAAAACCCCUCGUGGCUUGGAUAGAAUCCAGGGCUCGUGGCUCUGGAAUGUGUCUGAACUUGCUGCCUCCUCGCUCCUUGCUCAACAGAGGAUUGAGCAUCA

The target of this assay is T1, UNK ZnF1-6 (called full-length). As to the kind of experiment: nsRBNS (natural sequence RNA bind-n-seq); RBNS binding buffer (assumed for nsRBNS): 25 mM Tris pH 7.5, 150 mM KCl, 3 mM MgCl2, 0.01% Triton X-100, 500 ug/ml BSA, 20 U/ml SUPERase-In, 4 C; UNK is unkempt and MSI1 is Musashi-1; names of the RNAs are library labels; protein concentration not given here; high values mean tight binding.
B1 showed a binding signal of 0.667 enrichment R. B2 yielded a binding signal of 0.363 enrichment R. The molecule B3 displayed a binding signal of 0.509 enrichment R. B4 returned a binding signal of 0.525 enrichment R. Then B5, with 0.803 enrichment R; and B6, with 0.542 enrichment R. Turning to B7, the binding signal was 0.365 enrichment R. In the case of B8, the binding signal came out at 0.606 enrichment R.

Molecule B9 yielded a binding signal of 0.634 enrichment R. Then B10, with 1.74 enrichment R; and B11, with 1.2 enrichment R.

The molecule B12 registered a binding signal of 0.326 enrichment R. As for B13, the binding signal came out at 0.465 enrichment R. Then B14, with 0.448 enrichment R.
